Measured values taken from article PMC6919601, “Identification of Plasmodium dipeptidyl aminopeptidase allosteric inhibitors by high throughput screening” (PLoS ONE, 2019).
About 230 (0.21%) of roughly 110,000 compounds showed an effect of 50% or more. This is one part of the list.

The molecules below were run against DPAP1 (Plasmodium falciparum, UniProt Q8IIJ9) (assay: primary screen, percent inhibition; read by cleavage of a fluorogenic dipeptide substrate; higher = more effect of the substance).
Parameters: species or system P. falciparum D10 trophozoite lysates; single well
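Also: 30 min substrate incubation versus DMSO and 10 µM JCP410 controls.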

DPAP1, sequence (Q8IIJ9 whole entry, looked up): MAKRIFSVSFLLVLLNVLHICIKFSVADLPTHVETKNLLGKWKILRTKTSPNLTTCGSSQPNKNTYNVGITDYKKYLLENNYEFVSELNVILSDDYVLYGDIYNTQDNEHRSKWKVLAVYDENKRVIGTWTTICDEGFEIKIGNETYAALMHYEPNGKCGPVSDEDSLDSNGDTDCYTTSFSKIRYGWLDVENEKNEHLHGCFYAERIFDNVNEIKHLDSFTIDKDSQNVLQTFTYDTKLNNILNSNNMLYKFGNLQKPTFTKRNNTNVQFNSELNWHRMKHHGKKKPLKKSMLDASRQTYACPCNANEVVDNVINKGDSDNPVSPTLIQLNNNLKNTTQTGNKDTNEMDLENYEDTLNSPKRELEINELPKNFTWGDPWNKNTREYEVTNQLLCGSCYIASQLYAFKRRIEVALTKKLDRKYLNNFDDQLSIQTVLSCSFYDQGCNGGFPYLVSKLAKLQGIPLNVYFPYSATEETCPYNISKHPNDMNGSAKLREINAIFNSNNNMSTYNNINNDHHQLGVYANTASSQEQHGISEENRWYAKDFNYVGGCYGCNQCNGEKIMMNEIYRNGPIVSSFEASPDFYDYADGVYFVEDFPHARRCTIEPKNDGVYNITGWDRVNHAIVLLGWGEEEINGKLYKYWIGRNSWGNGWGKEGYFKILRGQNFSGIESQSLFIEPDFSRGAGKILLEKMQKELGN

Row | SMILES | % Inhibition @ 10 uM [%]
1 | COc1ccccc1NC(=O)C1=C(C)N=C2CCCC(O)=C2C1c1ccccc1C (centres unmarked) | -0.968
2 | Cc1ccccc1CN1CCN(Cc2c[nH]c3ccccc23)CC1 | 0.138
3 | COc1ccc(C2CC(=O)NC3=C2C(=O)CC(c2ccc(F)cc2)C3)c(OC)c1 (centres unmarked) | -3.51
4 | COc1ccc(-c2cc(C(=O)NCCCN3CCOCC3)c3ccccc3n2)c(OC)c1 | 5.61
5 | O=C(NCCNS(=O)(=O)c1ccccc1)c1c(O)c2ccccc2oc1=O | -2.51
6 | CC1(C)CC(=O)C2=C(C1)OC(N)=C(C#N)C21CCCC1 | 1.44
7 | COc1ccc(NC(=O)CN(c2ccc(Oc3ccccc3)cc2)S(C)(=O)=O)cc1 | -3.39
8 | O=C(CCCN1C(=O)C(c2ccccc2)Oc2cccnc21)N1CCOCC1 (centres unmarked) | -1.81
9 | CC(C)Cn1cc(C(=O)NCCN(C)Cc2ccccc2)c2c3ccccc3n(C)c2c1=O | -5.77
10 | COc1ccc(Cl)cc1S(=O)(=O)N1CCCCC1C (centres unmarked) | -1.54
11 | COc1ccc(C(=O)C2=C(O)C(=O)N(CCN3CCNCC3)C2c2ccc(F)cc2)cc1 (centres unmarked) | 0.487
12 | CCCSc1nc(-c2ccccc2)cc(-c2ccccc2OC)c1C#N | -1.97
13 | Clc1cccc(Cl)c1CN1CCN(c2ccccc2)CC1 | 4.8
14 | O=C(COc1ccc(Cl)cc1)NC(=O)NCc1ccco1 | -5.35
15 | Cc1nc2nc(NC(=O)C3CC3)nn2c(O)c1C | 3.66
16 | CC(=O)Nc1ccc(Br)cc1-c1ccccc1 | 6.53
17 | COc1ccc(-c2nc(CN3C(=O)CSc4nc(C)cc(C)c43)c(C)o2)cc1OC | -5.15
18 | CC1=C(C(=O)NC(C)C23CC4CC(CC(C4)C2)C3)C2(CCCCC2)OC1=O (centres unmarked) | -5.58
19 | CC(=O)c1ccc(N(/C=C2\Sc3ccccc3C2=O)C(=O)c2ccco2)cc1 | 9.01
20 | O=S(=O)(NC(c1ccccc1)c1ccccc1)c1ccc(-n2cnnn2)cc1 | -4.67
21 | O=C(Nc1ccccn1)c1onc2c1CCCC2 | -0.0619
22 | CCNC(=O)c1c(NC(=O)COc2ccc(Cl)cc2)sc2c1CCCC2 | 14.6
23 | CCOC(=O)c1cnc2ccc(C(=O)OC)cc2c1NCCCN(C)C | 4.74
24 | CCOCCCNC(=O)NCc1c(-n2cccc2)sc2c1CCCC2 | 0.623
25 | Cc1ccc2nc3c(cc(C(=O)NCCN4CCOCC4)c(=N)n3CC3CCCO3)c(=O)n2c1 (centres unmarked) | 0.279
26 | Cc1ccc(SCCC(=O)N2CCC(C(N)=O)CC2)cc1 | 0.709

Row | SMILES | % Inhibition @ 10 uM [%]
27 | O=C(NC1CCCCC1NC(=O)C1CC12CCC2)C1CC12CCC2 (centres unmarked) | 12.8
28 | COCCN(CCOC)S(=O)(=O)c1ccc(C(=O)Nc2sc3c(c2C#N)CCC3)cc1 | 2.7
29 | COc1ccc(CCNC(=O)CSc2nc3c(cc2C#N)N2CCC3CC2)cc1OC | -3.07
30 | CC(C)Cn1c(=O)c2ccccc2n2c(CCC(=O)NCCc3c[nH]c4ccccc34)nnc12 | 5.68
31 | O=C(COc1ccc(Br)cc1Br)Nc1ccccc1C(F)(F)F | -4.08
32 | Cc1nn(C(C)C(=O)N2CCC(Cc3ccccc3)CC2)c(=O)c2c1sc1ccccc12 (centres unmarked) | -5.78
33 | Cc1ccc(-c2cn3c(n2)sc2cc(C(=O)N4CCOCC4)ccc23)cc1 | 17
34 | CN(CC(=O)N1CCC(Cc2ccccc2)CC1)c1nnc(N2CCCC2=O)s1 | -2.94
35 | CCS(=O)(=O)N1CCC(C(=O)NCCN2CCCCC2C)CC1 (centres unmarked) | 0.514
36 | CC(C)C[C@H](NC(=O)N1CCN(c2ccncc2)CC1)C(=O)NCC#N | -5.64
37 | O=C(O)CCSCCc1ccncc1 | -6.29
38 | COc1ccc(-c2nc3n(n2)C(c2ccccc2Cl)C(C(=O)Nc2cccnc2)=C(C)N3)cc1 (centres unmarked) | 6.7
39 | COc1cccc(Cn2c(N3CCCCC3)nc3c2c(=O)n(C)c(=O)n3C)c1 | -5.14
40 | CCCn1c(NCc2ccccn2)nc2ccccc21 | -5.34
41 | Cc1nc2c(-c3ccccc3)c(C)nn2c(C)c1CC(=O)NCCC(C)C | 5.65
42 | O=C(c1ccc2ccccc2n1)N1CCc2ccccc2C1 | 0.627
43 | CCCCNS(=O)(=O)c1cc(-c2nn(C)c(=O)c3ccccc23)ccc1C | -2.14
44 | CCCc1cc(O)n2ncc(-c3ccc(Cl)cc3)c2n1 | -5.28
45 | COCCO/C(O)=C1\C(C)=NC(=S)NC1c1cccs1 (centres unmarked) | 2.05
46 | c1ccc2cc(OCCCCN3CCCC3)ccc2c1 | 1.35
47 | Cc1ccccc1C(=O)NCCNC1=NS(=O)(=O)c2ccccc21 | -3.28
48 | COCCOc1nc2ccccc2s1 | 5.56
49 | COc1ccc(CNC(=O)c2sc3nc(-c4ccc(OC)cc4)ccc3c2N)cc1 | 0.727
50 | COc1ccc(CC(=O)N2CCN(c3cccc(Cl)c3)CC2)cc1 | 0.215
51 | CCOc1ccc(CCNC(=O)c2cccc3c2C(=O)N(Cc2cccnc2)C3)cc1OCC | 1.23
52 | NC(=O)c1oc2ccccc2c1N | 3.61

Row | SMILES | % Inhibition @ 10 uM [%]
53 | c1ccc(C2CCC(N3CCC(N4CCCCC4)CC3)CC2)cc1 (centres unmarked) | 4.68
54 | CC(C)c1ccc(/C=C/C(=O)N2CCN(c3ccc([N+](=O)[O-])cc3)CC2)cc1 | 5.77
55 | COc1ccc(C2=N/C(=C\C(Cl)=C\c3ccccc3)C(=O)O2)c(Cl)c1 | -1.29
56 | CCOc1ccc(NC(=O)C2CC3CCC2C3)cc1 (centres unmarked) | -12.1
57 | COC(=O)C1=C(C)N(C)C(=O)/C1=C\c1cccc(Cl)c1 | -5.28
58 | C=CCc1cc(/C=C2\SC(=O)NC2=O)cc(OC)c1OC | 4.98
59 | Cc1c(C)n(C(=O)CN2CCc3ccccc3C2)c2ccccc12 | 3.87
60 | C=CCN1C(=O)S/C(=C/c2ccc(-c3ccc(C(=O)O)cc3)o2)C1=O | 8.07
61 | COc1ccc(S(=O)Cc2ccc(C(=O)NC3CC3)o2)cc1 (centres unmarked) | 2.83
62 | COc1ccc(OC)c(NC2=C(Cl)C(=O)N(c3ccccc3)C2=O)c1 | -8.56
63 | CCOc1cc(C2C(C#N)=C(N)Oc3[nH]nc(C)c32)ccc1OCc1cccc(F)c1 (centres unmarked) | 1.82
64 | O=C(C(Cc1ccccc1)N1C(=O)c2ccccc2C1=O)N1CCCCCC1 (centres unmarked) | -6.95
65 | Oc1cc(NCc2ccccc2)nc(O)n1 | -1.19
66 | C/N=C1\S/C(=C\c2ccc(-c3ccc(Cl)cc3C(=O)O)o2)C(=O)N1C | -3.67
67 | CCn1c2c(c3cc(Br)ccc31)CCCC2O (centres unmarked) | -8.71
68 | CCOC(=O)N1CCC(c2nc3ccccc3[nH]2)CC1 | -1.03
69 | CC1CCC(N2CCCC(CO)C2)C1 (centres unmarked) | -2.03
70 | COc1ccc(CCNC(=O)CN2C(=O)c3ccccc3S2(=O)=O)cc1 | 1.52
71 | N#Cc1c(NC(=O)CCN2C(=O)C3C4C=CC(C4)C3C2=O)sc2c1CCCC2 (centres unmarked) | -2.45
72 | CC(Oc1cccc(Cl)c1)C(=O)NCc1ccc2c(c1)OCO2 (centres unmarked) | -3.06
73 | O=C(Nc1ccccc1)SCC(=O)c1ccc(O)cc1 | -2.62
74 | COc1ccc2[nH]c(SCC(=O)Nc3ccc4c(c3)OCO4)nc2c1 | 0.674
75 | Cc1cccc(NC(=O)c2ccc(Cl)cc2)n1 | 7.73
76 | O=C(O)CCCC(=O)Nc1cnn(Cc2ccccc2)c1 | -4.28
77 | Cc1ccc(OCC(=O)Nc2ccc(O)cc2)cc1 | -0.95
78 | COc1cccc(C(=O)N(Cc2ccc(C(C)C)cc2)C2CCS(=O)(=O)C2)c1 (centres unmarked) | 0.198

Row | SMILES | % Inhibition @ 10 uM [%]
79 | O=C(OCCN1CCCCC1)c1ccc(O)cc1O | -4.15
80 | CC(C)c1ccc2c(N)c(C(=O)Nc3nc4ccccc4s3)sc2n1 | 1.31
81 | Cc1ccccc1OCCCCn1ccnc1 | -7.99
82 | Cc1cccc(C2C(C#N)=C(N)Oc3cc(C)oc(=O)c32)c1 (centres unmarked) | -3.13
83 | c1ccc(OCCCN2CCCCC2)cc1 | 2.76
84 | CCOC(=O)CC1(c2ccc(CC)cc2)C(=O)c2ccccc2C1=O | 3.48
85 | N#CC1=C(SCC(=O)NCc2ccccc2)N=C2CCCC(O)=C2C1c1ccc2c(c1)OCO2 (centres unmarked) | 3.79
86 | COc1ccccc1C1C2=C(O)CC(C)(C)CC2=Nc2ncnn21 (centres unmarked) | 1.73
87 | COc1cccc(-c2nnc(NC(=O)/C=C/c3ccccc3)s2)c1 | 13.5
88 | COc1ccc(Br)c(C(=O)Nc2c(O)oc3ccccc3c2=O)c1 | -0.148
89 | COc1ccc(NC(=O)c2ccc(CNS(=O)(=O)c3cccc(OC)c3)cc2)cc1 | 0.161
90 | COc1ccc(N(CC(=O)NCc2ccco2)S(=O)(=O)c2ccc(OC)c(OC)c2)cc1 | 3.48
91 | CC1=Nc2ncnn2C(c2ccccc2Cl)/C1=C(/O)OCc1ccccc1 (centres unmarked) | -3.14
92 | COc1ccc(C(=O)N2CCN(c3ccc(OCc4ccccc4)cc3)CC2)cc1 | -5.54
93 | O=C(CN(C1CCCCC1)S(=O)(=O)c1ccc(Br)cc1)NCc1cccnc1 | -5.27
94 | CCOC(=O)c1conc1-c1ccc([N+](=O)[O-])cc1 | -1.56
95 | OC1CCN(Cc2ccc(Cl)cc2Cl)CC1 | -3.72
96 | CC(C)C[C@H](NS(=O)(=O)c1ccc(-c2ccccc2Cl)cc1)C(=O)NCC#N | -2.02
97 | CC1(C)C(=O)N(OCc2ccccc2)C(C)(C)C(=O)N1OCc1ccccc1 | 2.7
98 | Cc1ccccc1C(=O)c1ccc(O)c(C)c1O | 2.3
99 | N#CCNC(=O)[C@H](Cc1cc(Cl)c(O)c(Cl)c1)NC(=O)c1ccc(-c2ccccc2)cc1 | -4.72
100 | O=C1S/C(=C/c2ccc3c(c2)OCO3)C(=O)N1CNc1ccccc1F | -5.1
101 | Cc1cc2ccccc2n1-c1ccc(C(=O)N2CCN(C)CC2)s1 | -2.83
